Data published in article PMC6919601, “Identification of Plasmodium dipeptidyl aminopeptidase allosteric inhibitors by high throughput screening” (PLoS ONE, 2019).
Hit rate of the full screen: of about 110,000 compounds, about 230 (0.21%) showed an effect of 50% or more. This is one part of the list.

Molecular target: DPAP1 (Plasmodium falciparum, UniProt Q8IIJ9)
Test: primary screen, percent inhibition; read by cleavage of a fluorogenic dipeptide substrate; higher = more effect of the substance
Design: species or system P. falciparum D10 trophozoite lysates; single well
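Note: 30 min substrate incubation versus DMSO and 10 µM JCP410 controls.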

DPAP1, sequence (Q8IIJ9 whole entry, looked up): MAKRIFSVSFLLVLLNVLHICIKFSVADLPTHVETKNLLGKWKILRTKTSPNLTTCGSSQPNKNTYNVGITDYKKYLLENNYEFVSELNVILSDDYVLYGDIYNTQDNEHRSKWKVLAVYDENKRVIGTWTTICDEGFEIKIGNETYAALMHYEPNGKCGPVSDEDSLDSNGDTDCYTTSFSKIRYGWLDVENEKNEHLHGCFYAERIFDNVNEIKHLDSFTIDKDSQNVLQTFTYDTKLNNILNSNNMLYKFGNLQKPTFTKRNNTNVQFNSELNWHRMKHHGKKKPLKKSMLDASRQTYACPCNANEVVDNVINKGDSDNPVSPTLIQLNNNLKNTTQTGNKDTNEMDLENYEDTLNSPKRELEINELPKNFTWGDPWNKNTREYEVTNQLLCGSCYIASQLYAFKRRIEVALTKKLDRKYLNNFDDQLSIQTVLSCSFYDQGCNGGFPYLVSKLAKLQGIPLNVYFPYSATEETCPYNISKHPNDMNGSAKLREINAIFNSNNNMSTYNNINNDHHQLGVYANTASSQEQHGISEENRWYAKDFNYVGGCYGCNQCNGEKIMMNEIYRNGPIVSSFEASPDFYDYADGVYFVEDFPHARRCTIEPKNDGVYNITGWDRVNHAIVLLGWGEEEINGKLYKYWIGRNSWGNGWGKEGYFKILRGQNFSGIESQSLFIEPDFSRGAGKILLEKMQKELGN

SMILES	% Inhibition @ 10 uM
CC(C)=CCC[C@H](C)CCN1CCC(C(N)=O)CC1	-1.21%
CCOC(=O)C(C(=O)OCC)c1ccc2cccc(O)c2n1	-3.16%
CCc1ccc(CNCCCSc2nnnn2-c2ccccc2)cc1	0.596%
N#CCCN1CCN(S(=O)(=O)c2ccc(C#N)cc2)CC1	-3.64%
CCOC(=O)c1sc(NC(=O)c2ccccc2F)nc1C	23.6%
Cn1cc(NC(=O)N2CCN(C(=O)c3ccco3)CC2)c2ccccc2c1=O	9.21%
CC(=O)Nc1ccc(S(=O)(=O)Nc2ccc(S(=O)(=O)N3CCc4ccccc43)cc2)cc1	5.87%
O=C(Cc1ccc(F)cc1)Nc1ccc(C(=O)c2ccccc2)cc1	5.66%
C(=N/n1cnnc1)/c1cccnc1	4.67%
COc1ccc(-n2nnc(-c3nsc(NC(=O)c4ccccc4)n3)c2C)cc1	1.26%
Cc1ccc(NC(=O)c2cc(-c3ccc(C)o3)nc3ccccc23)nc1	3.72%
CCCOc1ccc(-c2cnc(S)nc2N)cc1	6.82%
O=S1(=O)N=C(OCc2ccccc2)c2ccccc21	5.35%
COc1cccc(/C=C2/SC(Nc3ccccc3O)=NC2=O)c1	0.361%
O=[N+]([O-])c1ccc(-c2cnc(N3CCOCC3)nc2)cc1	-0.636%
O=C1NC(=O)C(=Cc2cccc(OCc3ccc(Cl)c(Cl)c3)c2)C(=O)N1	3.04%
CCC(NCc1cccnc1)c1ccc(OC)c(OC)c1 (stereo not drawn)	-6.94%
O=C(CN1C(=O)c2ccccc2C1=O)Nc1ccc2c(c1)OCO2	5.04%
O=C(/C=C\Nc1ccc(Br)cc1)c1cccnc1	3.05%
COCCN1C(=O)C(O)=C(C(=O)c2ccccc2)C1c1ccccc1F (stereo not drawn)	3.04%
CCc1nn(C(CC)C(=O)NCCCN2CC(C)CC(C)C2)c(=O)c2cc3oc(C)cc3n12 (stereo not drawn)	1.8%
CN(CC(=O)N1CCc2ccccc2C1)S(=O)(=O)c1ccc2[nH]c3c(c2c1)CCCC3	0.174%
CCOC(=O)/C=C(\C)N1N=C2c3ccc(OC)cc3CCC2C1c1ccc(OC)cc1 (stereo not drawn)	60.6%
C=CCN1C(=O)S/C(=C/c2cc(Cl)c(OC)c(OC)c2)C1=O	3.93%
CC12CN(S(=O)(=O)c3ccccc3)CC(C)(CN(S(=O)(=O)c3ccccc3)C1)C2	1.62%
C(=C\c1cccs1)/c1ccccn1	-6.28%

SMILES	% Inhibition @ 10 uM
O=c1c(CN2CCSCC2)coc2ccccc12	-1.04%
CCCCC(=O)Nc1c(C)c(CC)nc2ccccc12	0.266%
CCN1CCCC1CNC(=O)c1noc2c1COc1ccc(C)cc1-2 (stereo not drawn)	0.867%
CC(C)C/N=C/C1=C(O)CC(C)(C)CC1=O	-0.48%
O=C(CSc1c2c(nc3ccc(Cl)cc13)CCCC2)NCC1CCCO1 (stereo not drawn)	-6.89%
CCn1c(C)c(C2=CCN(S(=O)(=O)c3ccc(OC)c(OC)c3)CC2)c2ccccc21	2.34%
COc1cc2c(cc1OC)C(COc1cccc(C(F)(F)F)c1)N(C(=O)C1CC1)CC2 (stereo not drawn)	0.0904%
COc1cccc(/C=C2\C(=O)C(=O)c3ccccc32)c1	-2.28%
COc1ccc(C(=O)Nc2ccc(F)cc2)cc1	1.91%
CCc1ncc(C(O)c2ccccc2)n1C (stereo not drawn)	-5.94%
Cc1ccc(OCc2nc(C#N)c(N3CC(C)CC(C)C3)o2)cc1 (stereo not drawn)	-2.75%
Cc1noc(/C=C/N(C)C)c1S(=O)(=O)N1CCC2(CC1)OCCO2	11.4%
COc1ccc(N(CC(=O)Nc2cc(Cl)cc(Cl)c2)S(=O)(=O)c2ccccc2)c(OC)c1	-4.43%
COc1ccc(CN2CCCCCCC2)cc1C	5.32%
Cc1ccccc1OCC(=O)Nc1ccc(N2CCN(C(=O)C(C)C)CC2)c(Cl)c1	0.145%
Cc1ccc(CNC(=O)C2CCC(C/N=c3/c(N4CCCCC4)c(O)c3=O)CC2)cc1 (stereo not drawn)	-5.81%
Cc1ccc(N(CC(N)=O)C2SC(=O)N(Cc3cccc(C(=O)O)c3)C2=O)cc1 (stereo not drawn)	6.1%
C=CCOc1ccccc1CN1CCC(Cc2ccccc2)CC1	5.61%
Cc1ccc(-n2c(SCc3ccccn3)nc3nnc(C)c-3c2N)cc1Cl	-3.93%
CCN(CC)CCN(C)Cc1c(Cl)cccc1Cl	-3.8%
O=C(N[C@@H](Cc1ccc2ccccc2c1)C(=O)N[C@@H](CCc1ccccc1)C(=O)c1nc2ccccc2o1)C1CCNCC1	1.35%
CCOC(=O)C1=C(CN(C)Cc2ccccc2)NC(=O)NC1c1cccs1 (stereo not drawn)	1.44%
OC1CCCN(Cc2cccnc2)C1 (stereo not drawn)	-4.5%
CC12CCC(C(=O)NCc3ccc4c(c3)OCO4)(C(=O)C1=O)C2(C)C (stereo not drawn)	-7.9%
Cc1ccc(C2=NN(c3nc(-c4ccc(Cl)cc4)cs3)C(c3ccc(Cl)cc3)C2)cc1 (stereo not drawn)	2.91%
